The list shows a part of the results. The list includes weakly bound sequences.

The target in this test is MaxL homodimer (UniProt P61244). The test can be described thus: universal protein-binding microarray (PBM). The settings on record: PBS-based mixture, 10 nM His-tagged protein dimer, 2% milk, 200 ng/uL BSA, 50 ng/uL salmon testes DNA, 0.02% TX-100; detection with Alexa 488 anti-His …; high values mean tight binding; most listed sequences are background and not binding sites; double strand, one strand shown.
UniProt P61244, sequence (P61244 whole entry): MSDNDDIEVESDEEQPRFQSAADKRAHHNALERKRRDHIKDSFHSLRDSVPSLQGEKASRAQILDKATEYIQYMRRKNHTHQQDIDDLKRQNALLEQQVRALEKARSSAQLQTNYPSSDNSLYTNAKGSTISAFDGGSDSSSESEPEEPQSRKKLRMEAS
In the case of CATGTCCG, the binding signal (normalized occupancy) worked out at 0.0872.

Turning to GGGAACAC, the binding signal (normalized occupancy) came out at 0.0757.

Regarding CGTATACC, the binding signal (normalized occupancy) is 0.08.

On to CAACAGCA, for which the binding signal (normalized occupancy) worked out at 0.0758.

Consider ACTACGAG, for which the binding signal (normalized occupancy) was determined as 0.0744.

On to GACAGTTA, for which the binding signal (normalized occupancy) was 0.0705.

Take CAGTTTCG: the binding signal (normalized occupancy) was determined as 0.0698.

As for CAGACATC, the binding signal (normalized occupancy) amounted to 0.0793.

On to ACAAAATC, for which the binding signal (normalized occupancy) is 0.0707.

Regarding ATTTCGGG, the binding signal (normalized occupancy) came to 0.072.

As for TAAGCGAA, the binding signal (normalized occupancy) came to 0.0718.

With TACATCTA, the binding signal (normalized occupancy) amounted to 0.0787.

For the sequence CTACCAAC, the binding signal (normalized occupancy) turned out to be 0.0699.

Consider CACTACTC, for which the binding signal (normalized occupancy) was determined as 0.0745.

Take AGACAGAA: the binding signal (normalized occupancy) came to 0.0751.

Turning to ATTCGGCA, the binding signal (normalized occupancy) was found to be 0.0728.

Consider ATCCTAAC, for which the binding signal (normalized occupancy) amounted to 0.08.

As to CCACGCAA, the binding signal (normalized occupancy) is 0.0865.

Regarding ACGGTTGA, the binding signal (normalized occupancy) came out at 0.0809.

GCCAGATA: the binding signal (normalized occupancy) amounted to 0.0766.

Take TAAAGATA: the binding signal (normalized occupancy) was 0.0727.

For the sequence CGCATACG, the binding signal (normalized occupancy) came out at 0.0728.

Consider CCGTGGTA, for which the binding signal (normalized occupancy) was found to be 0.0806.

As for GTTCCCCA, the binding signal (normalized occupancy) worked out at 0.0775.

As to CTAGCACC, the binding signal (normalized occupancy) is 0.0742.

As for AAGTTCTG, the binding signal (normalized occupancy) was found to be 0.0725.

CGAACAGA: the binding signal (normalized occupancy) came out at 0.0737.

As for AACGTACT, the binding signal (normalized occupancy) worked out at 0.0746.

Consider GTCCCCCA, for which the binding signal (normalized occupancy) is 0.0848.

For the sequence CTACATGC, the binding signal (normalized occupancy) came out at 0.089.

Turning to ACTGTTCC, the binding signal (normalized occupancy) is 0.0738.

On to GAATGTCC, for which the binding signal (normalized occupancy) came to 0.0733.

Turning to CGCACCCC, the binding signal (normalized occupancy) worked out at 0.0893.

For ACATCGCC, the binding signal (normalized occupancy) worked out at 0.0791.

Regarding CATTAATG, the binding signal (normalized occupancy) amounted to 0.0812.

Take GATACAGA: the binding signal (normalized occupancy) is 0.0787.

Take GAAACACA: the binding signal (normalized occupancy) was 0.0834.

On to CACCATAG, for which the binding signal (normalized occupancy) turned out to be 0.079.

Consider AACAGCGC, for which the binding signal (normalized occupancy) is 0.0715.

Turning to AGGCGCCC, the binding signal (normalized occupancy) came to 0.0693.

For the sequence CAAAGGCC, the binding signal (normalized occupancy) was 0.0706.

Consider TAGACCGA, for which the binding signal (normalized occupancy) was 0.0717.

On to AATTATTC, for which the binding signal (normalized occupancy) was determined as 0.0811.

Consider ACACCTGG, for which the binding signal (normalized occupancy) is 0.0881.

Regarding TATGAAAA, the binding signal (normalized occupancy) amounted to 0.0815.

Consider CCATCCAG, for which the binding signal (normalized occupancy) is 0.0758.

Regarding CAGCCGGA, the binding signal (normalized occupancy) stood at 0.0698.

On to CAAGCATA, for which the binding signal (normalized occupancy) worked out at 0.0775.

As for GAAATATC, the binding signal (normalized occupancy) was 0.0717.

GAGAATTA: the binding signal (normalized occupancy) worked out at 0.0747.

With AACATCAC, the binding signal (normalized occupancy) stood at 0.0837.

CCTAGAGG: the binding signal (normalized occupancy) turned out to be 0.074.

In the case of GCATTCGA, the binding signal (normalized occupancy) was 0.0769.

With CCAATGGA, the binding signal (normalized occupancy) came out at 0.0747.

Take AGTTGCCC: the binding signal (normalized occupancy) amounted to 0.0732.

Regarding ATGGTAAA, the binding signal (normalized occupancy) amounted to 0.0767.

GTCGCGGA: the binding signal (normalized occupancy) came to 0.068.

For the sequence AGTCTCTA, the binding signal (normalized occupancy) is 0.0746.

As for AATTAAGT, the binding signal (normalized occupancy) worked out at 0.0713.

Take ACATTTTA: the binding signal (normalized occupancy) stood at 0.0797.

As for CCCCACCC, the binding signal (normalized occupancy) is 0.0931.

On to AGGCAGCC, for which the binding signal (normalized occupancy) was determined as 0.0705.

As to ACAAGCCT, the binding signal (normalized occupancy) turned out to be 0.0729.

Consider CATCGAGC, for which the binding signal (normalized occupancy) is 0.0825.

For AAGAGAAG, the binding signal (normalized occupancy) worked out at 0.0777.

Regarding ACCAACGG, the binding signal (normalized occupancy) came out at 0.0739.

For TAACGCTA, the binding signal (normalized occupancy) turned out to be 0.0804.

On to ACCAATTC, for which the binding signal (normalized occupancy) was determined as 0.0738.

For the sequence ACCCAGTC, the binding signal (normalized occupancy) was found to be 0.0736.

For TCAAGCGA, the binding signal (normalized occupancy) stood at 0.0732.

Regarding CGTGGTCA, the binding signal (normalized occupancy) turned out to be 0.102.

Regarding TGTTGTAA, the binding signal (normalized occupancy) was 0.0748.

As for TATATATA, the binding signal (normalized occupancy) worked out at 0.0875.

Consider CGAAGCTA, for which the binding signal (normalized occupancy) came to 0.0669.

On to ACCGGCTA, for which the binding signal (normalized occupancy) worked out at 0.0707.

CCATTAAC: the binding signal (normalized occupancy) was found to be 0.0853.

For the sequence GTATTTGA, the binding signal (normalized occupancy) turned out to be 0.0761.

AGTGAAAC: the binding signal (normalized occupancy) is 0.0748.

On to ATGCGATC, for which the binding signal (normalized occupancy) is 0.0837.

Turning to AGTTCTTG, the binding signal (normalized occupancy) was 0.0754.

On to CTCCTATA, for which the binding signal (normalized occupancy) came out at 0.0818.

For ATCTAGGG, the binding signal (normalized occupancy) is 0.0776.

On to TACCTGGA, for which the binding signal (normalized occupancy) turned out to be 0.0737.

As to AGAGAACT, the binding signal (normalized occupancy) stood at 0.0671.

As for CTAACCCC, the binding signal (normalized occupancy) stood at 0.0809.

Consider GCGAGACA, for which the binding signal (normalized occupancy) came out at 0.0763.

In the case of ATGGGAGG, the binding signal (normalized occupancy) amounted to 0.077.

For the sequence ACAAGAGA, the binding signal (normalized occupancy) came to 0.0717.

Regarding AAGCATCT, the binding signal (normalized occupancy) came out at 0.0778.

Regarding ATCTTTGA, the binding signal (normalized occupancy) came to 0.0714.

For CATGACTA, the binding signal (normalized occupancy) worked out at 0.091.

As for AAGCCAAC, the binding signal (normalized occupancy) amounted to 0.0708.

Consider GCTTTGTA, for which the binding signal (normalized occupancy) stood at 0.0706.

With CAAGAGAG, the binding signal (normalized occupancy) was determined as 0.0689.

Consider CGTTACTA, for which the binding signal (normalized occupancy) came out at 0.0794.

As to GGCATGGA, the binding signal (normalized occupancy) turned out to be 0.0929.

Turning to GTAGGGGA, the binding signal (normalized occupancy) was 0.0763.

AACTGACA: the binding signal (normalized occupancy) amounted to 0.0741.

Consider CTCATTGC, for which the binding signal (normalized occupancy) was 0.0792.

For AGGTTAAA, the binding signal (normalized occupancy) is 0.0747.

Turning to AGTCGGTG, the binding signal (normalized occupancy) was 0.0703.

Consider AGGAACTG, for which the binding signal (normalized occupancy) is 0.0672.

As to CGTGTTCA, the binding signal (normalized occupancy) was 0.1.

For CTTACATA, the binding signal (normalized occupancy) amounted to 0.077.

For AGCACCAA, the binding signal (normalized occupancy) was 0.0705.

GGCAGCTA: the binding signal (normalized occupancy) worked out at 0.0679.

Consider ACCCTGAC, for which the binding signal (normalized occupancy) was 0.0719.

For the sequence CCCTCTGC, the binding signal (normalized occupancy) was found to be 0.073.

CCACGGAC: the binding signal (normalized occupancy) came out at 0.0742.

As for ATGGTAGG, the binding signal (normalized occupancy) was found to be 0.0818.

With GACATTGC, the binding signal (normalized occupancy) is 0.0757.

In the case of AGGCCGGC, the binding signal (normalized occupancy) stood at 0.0665.

Regarding CTACATAC, the binding signal (normalized occupancy) was determined as 0.0842.

On to ATTACCTA, for which the binding signal (normalized occupancy) was 0.0784.

On to GCAAAATA, for which the binding signal (normalized occupancy) is 0.0747.

Take TACACACA: the binding signal (normalized occupancy) was 0.0876.

Turning to CGGTTAAC, the binding signal (normalized occupancy) stood at 0.0762.

Consider AGGAATGC, for which the binding signal (normalized occupancy) stood at 0.0737.

Consider ACTATGCG, for which the binding signal (normalized occupancy) came to 0.0817.

Consider CCCACACG, for which the binding signal (normalized occupancy) came to 0.0879.

Consider AACTATCT, for which the binding signal (normalized occupancy) was 0.0758.

Take CATCTACG: the binding signal (normalized occupancy) is 0.08.

In the case of GTCGCATA, the binding signal (normalized occupancy) stood at 0.0781.

Consider CCTAAATC, for which the binding signal (normalized occupancy) was found to be 0.0717.

On to CACAATGA, for which the binding signal (normalized occupancy) was found to be 0.0798.

For the sequence AGCATTTG, the binding signal (normalized occupancy) worked out at 0.0806.

As for GCTCTCGA, the binding signal (normalized occupancy) is 0.0695.

Take CGTATAAA: the binding signal (normalized occupancy) is 0.0772.

In the case of CTCCGCTA, the binding signal (normalized occupancy) was determined as 0.071.

As to AAAGCGCC, the binding signal (normalized occupancy) was 0.0648.

Turning to AGAGCGGA, the binding signal (normalized occupancy) turned out to be 0.0697.

With CACGACCA, the binding signal (normalized occupancy) was found to be 0.0817.

With GTGTATCA, the binding signal (normalized occupancy) came out at 0.0882.

In the case of CGGAAGAA, the binding signal (normalized occupancy) turned out to be 0.0742.

Turning to ACTCTTGA, the binding signal (normalized occupancy) was determined as 0.0749.

As to ACATATGA, the binding signal (normalized occupancy) was 0.0952.

For the sequence ATTGCCTG, the binding signal (normalized occupancy) turned out to be 0.0717.

Turning to GAGCGTTA, the binding signal (normalized occupancy) is 0.0762.

Take ACCGAGCG: the binding signal (normalized occupancy) came to 0.0658.

On to GCTGTGAC, for which the binding signal (normalized occupancy) was found to be 0.0796.

As for GCAAAGCA, the binding signal (normalized occupancy) was 0.0727.

Turning to AGAGGTAC, the binding signal (normalized occupancy) turned out to be 0.07.

On to CCACCGCG, for which the binding signal (normalized occupancy) came out at 0.0731.

For ACCATCGC, the binding signal (normalized occupancy) worked out at 0.0769.

In the case of AGGTACCG, the binding signal (normalized occupancy) is 0.0708.

With ATAGCGCG, the binding signal (normalized occupancy) amounted to 0.0771.

ACATGCTA: the binding signal (normalized occupancy) worked out at 0.106.

With ACGAGGAA, the binding signal (normalized occupancy) was 0.0843.

GTTGCAAA: the binding signal (normalized occupancy) is 0.0706.

Regarding CACAATAC, the binding signal (normalized occupancy) came to 0.0813.

As to CATCACGG, the binding signal (normalized occupancy) was 0.0829.

For CGATCCGC, the binding signal (normalized occupancy) came to 0.0734.

As for GCAGTTCA, the binding signal (normalized occupancy) was found to be 0.0696.

In the case of CACTAGCA, the binding signal (normalized occupancy) came to 0.0786.

In the case of CCTCTTCC, the binding signal (normalized occupancy) came out at 0.0725.

Take AACACTCT: the binding signal (normalized occupancy) was 0.0798.

As to AGACCGTA, the binding signal (normalized occupancy) was 0.0748.

On to TCGTACCA, for which the binding signal (normalized occupancy) was 0.0784.

In the case of CGTCGACA, the binding signal (normalized occupancy) amounted to 0.0772.

For the sequence ATGATTGC, the binding signal (normalized occupancy) turned out to be 0.0863.

For the sequence ATTCACCC, the binding signal (normalized occupancy) is 0.0772.

Consider GTGGGATA, for which the binding signal (normalized occupancy) came out at 0.0873.

Turning to CCATTGGG, the binding signal (normalized occupancy) is 0.0717.

For CTGAGTAA, the binding signal (normalized occupancy) is 0.0757.

On to ACCGGCGA, for which the binding signal (normalized occupancy) amounted to 0.0659.

ATCTTCTA: the binding signal (normalized occupancy) is 0.0773.

As to GTAAGACA, the binding signal (normalized occupancy) stood at 0.0774.

Consider GTGCCTCA, for which the binding signal (normalized occupancy) came to 0.0779.

For the sequence CCATTATC, the binding signal (normalized occupancy) was determined as 0.0782.

On to ACGCCCCC, for which the binding signal (normalized occupancy) is 0.0803.

In the case of ACGTCTGG, the binding signal (normalized occupancy) is 0.0743.

For the sequence ATACCAAG, the binding signal (normalized occupancy) turned out to be 0.0759.
